The text below walks through data of paper PMC6212790.

The other results are listed elsewhere or left out. At the low end of the ranking the order means little.

This assay concerns the target T1, GST-Rok-C97-191 (UniProt O34857).
T1 sequence: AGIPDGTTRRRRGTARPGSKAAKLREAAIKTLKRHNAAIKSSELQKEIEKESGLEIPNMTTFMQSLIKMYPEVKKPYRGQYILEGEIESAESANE
Briefly: protein binding microarray.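 Note: rank score from −0.5 (least bound) to 0.5 (best bound).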 Conditions: Rok is a gene silencer of Bacillus subtilis; high values mean tight binding; most listed sequences are background and not binding sites; double strand, one strand shown.
Consider TCGGCCAA, for which the binding signal was -0.0806 E-score.

Regarding GTCATTTA, the binding signal came to 0.0352 E-score.

The sequence CCTTTACG registered a binding signal of -0.0108 E-score.

Turning to CGTAATAA, the binding signal stood at 0.323 E-score.

GAATAGAC registered a binding signal of 0.0737 E-score.

Take AGCCGCCG: the binding signal is -0.359 E-score.

Sequence GATTGTTA yielded a binding signal of 0.183 E-score.

AAGCAATG came in with a binding signal of -0.116 E-score.

AAATATGG had a binding signal of 0.279 E-score.

Sequence CGTCCGGC showed a binding signal of -0.185 E-score.

In turn, CCGCGTTC registered a binding signal of -0.185 E-score.

Sequence GTTTAGTA yielded a binding signal of 0.31 E-score.

In turn, CCAGAACA showed a binding signal of -0.0486 E-score.

As for GCCCAGCC, the binding signal is -0.439 E-score.

Turning to GAGTGAGC, the binding signal was -0.144 E-score.

Sequence CCCGTTAC came in with a binding signal of 0.064 E-score.

Turning to AGGCCTCG, the binding signal was -0.183 E-score.

As for AGCTCCAA, the binding signal was -0.0742 E-score.

On to CAAGCGGA, for which the binding signal is -0.104 E-score.

As for GAATCTGA, the binding signal is -0.144 E-score.

AATGTTTC yielded a binding signal of 0.106 E-score.

On to AAGCGCGG, for which the binding signal was -0.107 E-score.

In turn, ATGATGTG had a binding signal of 0.0328 E-score.

The sequence ATGAATGG displayed a binding signal of 0.00148 E-score.

Take GAACCATC: the binding signal was 0.0782 E-score.

With CTATATAA, the binding signal is 0.359 E-score.

In turn, TCTGAAGA yielded a binding signal of -0.123 E-score.

In turn, CGTTTCCC came in with a binding signal of -0.21 E-score.

In turn, GCTTCTCC displayed a binding signal of -0.242 E-score.

Regarding GGTATCAC, the binding signal worked out at 0.233 E-score.

With GTCGTAGA, the binding signal amounted to 0.159 E-score.

Sequence CCGTGGCC displayed a binding signal of -0.238 E-score.

With GCGCATAC, the binding signal stood at 0.0738 E-score.

Turning to CCTCTACG, the binding signal is -0.128 E-score.

TCCCAGAA showed a binding signal of -0.0625 E-score.

In turn, AGACAAAA came in with a binding signal of -0.146 E-score.

For the sequence CACCCAAA, the binding signal was -0.0429 E-score.

For ACATAGCC, the binding signal was -0.0062 E-score.

The sequence TACGGCCA came in with a binding signal of -0.0766 E-score.

Turning to ACAGACAG, the binding signal stood at 0.0147 E-score.

In turn, ATTATAAG yielded a binding signal of 0.316 E-score.

As to CAAATACC, the binding signal turned out to be 0.114 E-score.

Sequence AAGTCCAT came in with a binding signal of 0.18 E-score.

CCCAACTC came in with a binding signal of -0.194 E-score.

As for CAGGTTAA, the binding signal was -0.0938 E-score.

For GCTCGAAC, the binding signal was -0.0938 E-score.

Regarding AACTGATG, the binding signal is 0.0551 E-score.

GCTATGCC yielded a binding signal of -0.172 E-score.

CGTCCTAA showed a binding signal of 0.0235 E-score.

Turning to ACTACGCA, the binding signal is -0.0187 E-score.

With GCGGAACC, the binding signal was -0.319 E-score.

Sequence AGCGCTCG showed a binding signal of -0.215 E-score.

For the sequence AAGACCCC, the binding signal was -0.237 E-score.

For the sequence AGTACACA, the binding signal came out at 0.184 E-score.

With ACAAGAAG, the binding signal was -0.0588 E-score.

Turning to GGTAGCAC, the binding signal turned out to be 0.16 E-score.

In turn, AACGCGTC registered a binding signal of -0.195 E-score.

For AGCCCCTA, the binding signal is -0.272 E-score.

As to CCCTGAGA, the binding signal was -0.189 E-score.

On to ACTTGTTA, for which the binding signal is 0.282 E-score.

As to CCACGCTC, the binding signal is -0.0229 E-score.

For the sequence AAGACAAT, the binding signal worked out at 0.00827 E-score.

For TATGTACA, the binding signal turned out to be 0.345 E-score.

As for AGGAATGA, the binding signal was 0.0981 E-score.

The sequence AGGAAATA came in with a binding signal of 0.13 E-score.

Turning to GCTCGAAA, the binding signal was -0.112 E-score.

As for GTAGACAC, the binding signal was -0.14 E-score.

Consider ATCCTACC, for which the binding signal was found to be 0.239 E-score.

In the case of ATTCCGGC, the binding signal was determined as 0.0407 E-score.

As to AGCCCACT, the binding signal was -0.142 E-score.

With GACAGTAC, the binding signal came to 0.0206 E-score.

In turn, AAGGGAGA showed a binding signal of -0.31 E-score.

The sequence ACTGCGTG came in with a binding signal of -0.0696 E-score.

GGCGACTA returned a binding signal of -0.103 E-score.

On to CCATCGGA, for which the binding signal was -0.129 E-score.

CGTCTGAC: the binding signal was -0.183 E-score.

Turning to AGTTTAAG, the binding signal was determined as 0.0599 E-score.

In turn, CATTGAGC displayed a binding signal of -0.106 E-score.

AGATCTGG had a binding signal of -0.0775 E-score.

The sequence AATCGAGC came in with a binding signal of 0.0653 E-score.

The sequence GCCGCAGA returned a binding signal of -0.176 E-score.

Regarding ACCGGCCG, the binding signal was -0.0923 E-score.

Regarding AGGGAACG, the binding signal amounted to 0.00378 E-score.

As for ATCGACAG, the binding signal is -0.0645 E-score.

The sequence GCTCCCAC returned a binding signal of -0.202 E-score.

Sequence CAAGAGCA gave a binding signal of -0.103 E-score.

The sequence AAGAAATT gave a binding signal of 0.138 E-score.

With AAAGAGCC, the binding signal was -0.305 E-score.

AATCCGGT registered a binding signal of 0.0902 E-score.

Sequence CATTTGCA came in with a binding signal of 0.157 E-score.

In turn, GTAAGAAC registered a binding signal of -0.0908 E-score.

In turn, CCCCCGGC gave a binding signal of -0.239 E-score.

GTCTCCGA showed a binding signal of -0.117 E-score.

ATCCCCAT displayed a binding signal of -0.0823 E-score.

With CCCGCAGG, the binding signal is -0.297 E-score.

The sequence CGACCCGA registered a binding signal of -0.199 E-score.

The sequence AGTTGCAG registered a binding signal of -0.0262 E-score.

With CCGCATAA, the binding signal was -0.0629 E-score.

The sequence AGCGAGGC gave a binding signal of -0.25 E-score.

Consider AGATTTAA, for which the binding signal was 0.119 E-score.

Sequence AGGTCCAT registered a binding signal of 0.0797 E-score.

Turning to CGCTGATC, the binding signal is -0.0449 E-score.

Take CTAGTGAA: the binding signal was determined as 0.171 E-score.

The sequence CCGCATCG returned a binding signal of -0.195 E-score.

Consider ACTAGGCT, for which the binding signal is -0.0671 E-score.

In turn, CCCCGCAC came in with a binding signal of -0.35 E-score.

Regarding ATATTATA, the binding signal came out at 0.379 E-score.

With ACGAGACA, the binding signal came to 0.131 E-score.

Take GCTGGCGA: the binding signal is -0.195 E-score.

ATATAGCG gave a binding signal of 0.349 E-score.

CCACTATA came in with a binding signal of 0.219 E-score.

In turn, CGGGGGTA showed a binding signal of -0.207 E-score.

For TGAGAGCA, the binding signal was -0.0498 E-score.

As to CACTGGAA, the binding signal was -0.137 E-score.

Take ACTACTGG: the binding signal is 0.307 E-score.

The sequence GAGGAGCC returned a binding signal of -0.367 E-score.

In turn, ACGCCGCC yielded a binding signal of -0.236 E-score.

In turn, CCTAATCC registered a binding signal of 0.0562 E-score.

For the sequence GACAAGTC, the binding signal is -0.138 E-score.

The sequence AGCATCGC yielded a binding signal of -0.207 E-score.

Turning to AGGAGTTA, the binding signal worked out at 0.0534 E-score.

Consider GAAACGAA, for which the binding signal is -0.0931 E-score.

CAGGTAGC registered a binding signal of 0.0356 E-score.

In turn, ACGTCAGA displayed a binding signal of -0.183 E-score.

For the sequence GTCGACTA, the binding signal was determined as 0.183 E-score.

AAACGGGG returned a binding signal of 0.0334 E-score.

With AAACGCAT, the binding signal is -0.135 E-score.

GCGTAGAC displayed a binding signal of -0.111 E-score.

AAACTGTT registered a binding signal of -0.043 E-score.

Consider CTGATTCC, for which the binding signal is -0.0703 E-score.

ACCGGTCA had a binding signal of -0.0246 E-score.

ACTTTGAC gave a binding signal of -0.00718 E-score.

In turn, GAATCGCC had a binding signal of 0.00133 E-score.

Consider AACGTTAC, for which the binding signal was 0.172 E-score.

On to CAGGAATA, for which the binding signal is -0.142 E-score.

CTCCTAAA displayed a binding signal of -0.155 E-score.

ACCTTTCC gave a binding signal of -0.0629 E-score.

GATGCTGA displayed a binding signal of -0.0939 E-score.

The sequence CCACATCC displayed a binding signal of -0.109 E-score.

Consider CCGATTCA, for which the binding signal is -0.0672 E-score.

Turning to AAAAATGG, the binding signal worked out at 0.056 E-score.

As to GAAACTCA, the binding signal is 0.0227 E-score.

As for TCATATGA, the binding signal is 0.14 E-score.

For the sequence CGATTACG, the binding signal is -0.191 E-score.

In the case of CGGAGCGC, the binding signal is -0.13 E-score.

Turning to AGGGCCGG, the binding signal was -0.227 E-score.

Consider ACAATACA, for which the binding signal is 0.265 E-score.

Turning to GTCTTAAA, the binding signal was -0.129 E-score.

With GATCTAAA, the binding signal is -0.144 E-score.

Regarding CCCTCTTC, the binding signal is -0.271 E-score.

On to ATTTCTCG, for which the binding signal is 0.1 E-score.

CTCGTATC: the binding signal was -0.195 E-score.

For the sequence AAAGTCTC, the binding signal turned out to be 0.0451 E-score.

For GGAGGACC, the binding signal is -0.318 E-score.

Consider CAACGGTC, for which the binding signal was -0.177 E-score.

Take ATTGGCTG: the binding signal is -0.0203 E-score.

As for ACTCAAAG, the binding signal is -0.155 E-score.

As for AGCCTCAT, the binding signal was -0.232 E-score.

The sequence CAAACGTA came in with a binding signal of 0.139 E-score.

In turn, GATGTCAA showed a binding signal of -0.019 E-score.

CACAACGG yielded a binding signal of -0.135 E-score.

GAAGTTAA returned a binding signal of 0.271 E-score.

On to GCCTATCC, for which the binding signal was -0.2 E-score.

ATAGTCCC registered a binding signal of -0.0996 E-score.

In turn, ACTCTATA came in with a binding signal of 0.116 E-score.

Sequence ACTCAATG registered a binding signal of 0.0506 E-score.

Sequence GTCAAGTA returned a binding signal of 0.157 E-score.

Turning to CAATCAAA, the binding signal was determined as 0.122 E-score.

In turn, GCAATCGC gave a binding signal of -0.0952 E-score.

In turn, GAGTTGCA registered a binding signal of 0.0131 E-score.

In turn, CGCGACCA had a binding signal of -0.101 E-score.

As to ATAACCGC, the binding signal is 0.0139 E-score.
